41 compounds from ChEMBL document CHEMBL4888484, “Replenishing the malaria drug discovery pipeline: Screening and hit evaluation of the MMV Hit Generation Library 1 (HGL1) against asexual blood stage Plasmodium falciparum ,using a nano luciferase reporter read-out” (2022) can be followed below.

Screen size: about 150,000 compounds; about 540 (0.36%) showed an effect of 50% or more. The list shows a part of the results.

In this assay the test system is Plasmodium falciparum. Put plainly: Primary screen in NF54 nanoGlo assay, in single point, at 2uM, 72h; a lower Z score goes with more inhibition. Format: functional, Erythrocyte. Particulars: timepoint 72 hour.
For `COc1cccc(S(=O)(=O)N2CCc3c(c(-c4nc(-c5ccccc5)no4)nn3C)C2)c1`, the % Inhibition – broadly, the change of the read-out against control, counted positive when it falls – is reported as 4% and the Z score was -0.44.

Turning to `O=C(N[C@H]1CCS(=O)(=O)C1)c1ccc(S(=O)(=O)c2ccccc2)o1`, the “% Inhibition” value is on record as -8% and the Z score came out at 1.07.

Take `Cn1c(-c2ccc(Cl)c(Cl)c2)c[n+](CC(=O)c2cccc(Br)c2)c1N`: the “% Inhibition” value is 5% and the Z score is listed as -0.77.

In the case of `C[C@H](O)c1nc2cc(-c3ccc(CCC(=O)O)cc3)ccc2[nH]1`, the “% Inhibition” value is -18% and the Z score is given as 1.94.

Regarding `COCCN(CC(=O)NCc1ccccc1F)Cc1cccnc1`, the “% Inhibition” value is given as -2% and the Z score is 0.28.

As for `NC(=O)Nc1ccc(NC(=O)c2ccc3c(c2)CCCC3)cc1`, the “% Inhibition” value is recorded as -4% and the Z score is on record as 0.77.

On to `Cc1ccc(NC(=O)CC(C)(C)CC(=O)N2CCc3ccccc3C2)cc1Cl`, for which the “% Inhibition” value was -1% and the Z score is 0.2.

Turning to `O=C(CS(=O)(=O)Cc1csc(-c2cccs2)n1)Nc1ccc(F)cc1F`, the “% Inhibition” value is recorded as -12% and the Z score came out at 1.52.

Take `O=C(c1nc2ccc(Cl)cn2c1CNCCc1cnccn1)N1CCCCCCC1`: the “% Inhibition” value is on record as -5% and the Z score is given as 0.74.

For the compound `CC(C)CC1NC(=O)N(C2CC3CCC2O3)C1=O` (configuration not stated), the “% Inhibition” value is -7% and the Z score amounted to 0.93.

As for `CCCc1nc(C)cc(N2CCC3(CCC(=O)N(Cc4cccnc4)C3)CC2)n1`, the “% Inhibition” value came out at 17% and the Z score is listed as -2.29.

On to `Cc1ccc(F)c(OC2(C(=O)O)CCN(C[C@H]3CCOC3)CC2)c1`, for which the “% Inhibition” value is recorded as -9% and the Z score is given as 1.16.

As for `O=C1C[C@H](NCc2ccco2)C(=O)N1CCc1ccccc1`, the “% Inhibition” value is -6% and the Z score is on record as 1.21.

For the compound `COc1cccc(-c2ccc(N3CCN(C(=O)CN(Cc4ccc5c(c4)OCO5)C(=O)c4ccccc4F)CC3)nn2)c1`, the “% Inhibition” value is given as 0% and the Z score was -0.02.

As for `COc1cc(Cl)ccc1C(=O)N1CC[C@H](CN2CCCCC2)C1`, the “% Inhibition” value was 4% and the Z score is given as -0.4.

`Cc1ccc2oc(CN3CCC[C@@]4(CCS(=O)(=O)C4)C3)cc2c1`: the “% Inhibition” value is listed as -4% and the Z score was determined as 0.66.

Regarding `COc1cccc([C@@H]2CCN2C(=O)c2cc(C)c(C)c(S(N)(=O)=O)c2)c1`, the “% Inhibition” value is -5% and the Z score is 0.83.

In the case of `CC(C)(C)C(=O)N1CCC(Cn2cncc(-c3ccccc3)c2=O)CC1`, the “% Inhibition” value is on record as 28% and the Z score is reported as -3.51.

Regarding `COCCNC(=O)NCC#CCN1CCc2ccccc2C1`, the “% Inhibition” value is -7% and the Z score came to 0.85.

Regarding `CCCS(=O)(=O)N(CCOC)CC(=O)N(Cc1ccc(Cl)cc1)C1CCN(C(=O)NCC)CC1`, the “% Inhibition” value was -5% and the Z score was found to be 0.67.

In the case of `O=C(CN1C(=O)CCCc2cc(S(=O)(=O)N3CCOCC3)ccc21)Nc1ccc2c(c1)OCO2`, the “% Inhibition” value was -7% and the Z score is listed as 0.87.

Regarding `CN1CCN(C(=O)c2nccc3ccsc23)C(C)(C)C1`, the “% Inhibition” value is given as -8% and the Z score came to 0.81.

Regarding `CCOC(=O)N1CCN(c2cn[nH]c(=O)n2)CC1`, the “% Inhibition” value is -15% and the Z score was determined as 2.01.

Regarding `CCC(CC)N(CC(=O)N1CCN(S(C)(=O)=O)CC1)c1ccc(C)c(C)c1`, the “% Inhibition” value is -1% and the Z score is on record as 0.12.

`Cc1nn(C)c(C)c1S(=O)(=O)N1C(C)C(=O)NC(C)C1C` (configuration not stated): the “% Inhibition” value was -9% and the Z score stood at 1.84.

`Cc1cnc(CNC(=O)[C@H]2CCO[C@@H]2c2ccccc2)c(C)c1`: the “% Inhibition” value is given as 3% and the Z score is recorded as -0.58.

As for `Cc1c2c(nc3c(S(=O)(=O)c4ccccc4)c(N4CCNCC4)nn13)CCC2`, the “% Inhibition” value is -4% and the Z score came to 0.76.

In the case of `CCN(CC(=O)Nc1ccc2c(c1)OCCO2)C(=O)[C@H](C)Oc1ccc(Cl)cc1`, the “% Inhibition” value stood at 3% and the Z score is -0.43.

As to `COc1cccc2c(=O)n(CC3CCCC3)ncc12`, the “% Inhibition” value is reported as -5% and the Z score came to 0.55.

As for `C[C@@H](C(=O)NC(N)=O)N(C)Cc1cc(Br)ccc1F`, the “% Inhibition” value is -6% and the Z score turned out to be 0.86.

With `C[C@H]1CCCCN1C(=O)c1ccc(NCc2cn(C(C)(C)C)nn2)cc1Cl`, the “% Inhibition” value was -9% and the Z score was found to be 1.2.

Turning to `CCN(CC1CCCO1)C(=O)CC1(c2ccccc2)CC(=O)N(Cc2ccc3c(c2)OCO3)C1=O` (configuration not stated), the “% Inhibition” value is reported as -2% and the Z score came out at 0.28.

On to `Cc1c(C#N)c(NC(=O)[C@H]2CCCO2)n2ccccc12`, for which the “% Inhibition” value is 4% and the Z score was -0.81.

On to `CCc1nc(C)c(C(=O)Nc2ccccc2CCC(=O)NC)o1`, for which the “% Inhibition” value was -8% and the Z score worked out at 1.51.

Consider `CC(C)c1nc2n(n1)C1(CCCCC1)[C@@H]1CCCC[C@@H]1N2`, for which the “% Inhibition” value is -4% and the Z score is 0.64.

`CC1CC1N1CC(NC(=O)Nc2ccccc2Cl)CC1=O` (configuration not stated): the “% Inhibition” value is reported as -2% and the Z score came out at 0.24.

As to `CC(C)C[C@@]1(C2CCN(Cc3cccnc3)CC2)NC(=O)N(CCc2cccs2)C1=O`, the “% Inhibition” value is reported as -4% and the Z score is given as 0.63.

Consider `C[C@H]1OCC[C@H]1NCc1cscc1C(F)(F)F`, for which the “% Inhibition” value is on record as -8% and the Z score is given as 1.11.

In the case of `Cc1cccc(N2CCC(NC(=O)c3c(-c4ccccn4)noc3C)CC2)n1`, the “% Inhibition” value is -5% and the Z score came to 0.74.

With `COC[C@@](O)(CNS(=O)(=O)c1ccc(-n2cccn2)cc1)c1ccccc1`, the “% Inhibition” value is given as -9% and the Z score turned out to be 1.55.

Consider `CCc1csc(CC2CCN(Cc3ccccc3C(=O)O)CC2)n1`, for which the “% Inhibition” value is -5% and the Z score came to 0.86.
